This is one part of the list.
Assays:
Experiment in all cases: glycan array binding signal (z-score within array); higher = stronger binding
Details in all cases: glycan notation: IUPAC condensed, linker removed
[1] = target: Gal(b1-4)GlcNAc(b1-3)Gal(b1-4)GlcNAc(b1-3)[Gal(b1-4)GlcNAc(b1-3)Gal(b1-4)GlcNAc(b1-6)]GalNAc
In short: (§1)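 The binding signal is a Z-score computed within each array and averaged over linkers. Arrays of the same protein sequence at different concentrations or buffers were also averaged together. Data originate from 3228 arrays in the Consortium for Functional Glycomics database, kept only where the protein sequence was available.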

[2] = target: Gal(b1-4)GlcNAc(b1-3)Gal(b1-4)GlcNAc(b1-6)[Gal(b1-3)]GalNAc
In short: as §1

[3] = target: Gal(b1-4)GlcNAc(b1-3)Gal(b1-4)[Fuc(a1-3)]GlcNAc(b1-3)Gal(b1-4)[Fuc(a1-3)]GlcNAc
In short: as §1

[4] = target: Gal(b1-4)GlcNAc(b1-3)GalNAc
In short: as §1

[5] = target: Gal(b1-4)GlcNAc(b1-3)[Fuc(a1-3)GlcNAc(b1-6)]Gal(b1-4)Glc
In short: as §1

[6] = target: Gal(b1-4)GlcNAc(b1-3)[Gal(b1-4)GlcNAc(b1-6)]Gal(b1-4)GlcNAc
In short: as §1

[7] = target: Gal(b1-4)GlcNAc(b1-3)[GlcNAc(b1-6)]Gal(b1-4)GlcNAc
In short: as §1

[8] = target: Gal(b1-4)GlcNAc(b1-6)Gal(b1-4)GlcNAc
In short: as §1

[9] = target: Gal(b1-4)GlcNAc(b1-6)GalNAc
In short: as §1

[10] = target: Gal(b1-4)GlcNAc(b1-6)[Gal(b1-3)]GalNAc
In short: as §1

[11] = target: Gal(b1-4)GlcNAc(b1-6)[Gal(b1-4)GlcNAc(b1-3)]GalNAc
In short: as §1

Gal(b1-4)GlcNAc6P = target: Gal(b1-4)GlcNAc6P
In short: as §1

Gal(b1-6)Gal = target: Gal(b1-6)Gal
In short: as §1

Gal3S(b1-3)GalNAc = target: Gal3S(b1-3)GalNAc
In short: as §1

Gal3S(b1-3)GlcNAc = target: Gal3S(b1-3)GlcNAc
In short: as §1

[12] = target: Gal3S(b1-3)[Fuc(a1-4)]GlcNAc
In short: as §1

Gal3S(b1-4)Glc = target: Gal3S(b1-4)Glc
In short: as §1

Gal3S(b1-4)Glc6S = target: Gal3S(b1-4)Glc6S
In short: as §1

Gal3S(b1-4)GlcNAc = target: Gal3S(b1-4)GlcNAc
In short: as §1

[13] = target: Gal3S(b1-4)[Fuc(a1-3)]Glc6S
In short: as §1

[14] = target: Gal3S(b1-4)[Fuc(a1-3)]GlcNAc
In short: as §1

[15] = target: Gal3S(b1-4)[Fuc(a1-3)]GlcNAc6S
In short: as §1

Gal3S4S(b1-4)GlcNAc = target: Gal3S4S(b1-4)GlcNAc
In short: as §1

Gal3S6S(b1-4)GlcNAc = target: Gal3S6S(b1-4)GlcNAc
In short: as §1

Gal3S6S(b1-4)GlcNAc6S = target: Gal3S6S(b1-4)GlcNAc6S
In short: as §1

Gal4S(b1-4)GlcNAc = target: Gal4S(b1-4)GlcNAc
In short: as §1

Gal4S6S(b1-4)GlcNAc = target: Gal4S6S(b1-4)GlcNAc
In short: as §1

Gal6P(b1-4)GlcNAc = target: Gal6P(b1-4)GlcNAc
In short: as §1

Gal6S(b1-3)GlcNAc = target: Gal6S(b1-3)GlcNAc
In short: as §1

Gal6S(b1-3)GlcNAc6S = target: Gal6S(b1-3)GlcNAc6S
In short: as §1

Gal6S(b1-4)Glc = target: Gal6S(b1-4)Glc
In short: as §1

Gal6S(b1-4)Glc6S = target: Gal6S(b1-4)Glc6S
In short: as §1

Gal6S(b1-4)GlcNAc = target: Gal6S(b1-4)GlcNAc
In short: as §1

Gal6S(b1-4)GlcNAc6S = target: Gal6S(b1-4)GlcNAc6S
In short: as §1

GalNAc(a1-3)Gal = target: GalNAc(a1-3)Gal
In short: as §1

GalNAc(a1-3)GalNAc = target: GalNAc(a1-3)GalNAc
In short: as §1

[16] = target: GalNAc(a1-3)GalNAc(b1-3)Gal(a1-4)Gal(b1-4)Glc
In short: as §1

[17] = target: GalNAc(a1-3)GalNAc(b1-3)Gal(a1-4)Gal(b1-4)GlcNAc
In short: as §1

GalNAc(b1-3)Gal = target: GalNAc(b1-3)Gal
In short: as §1

[18] = target: GalNAc(b1-3)Gal(a1-4)Gal(b1-4)GlcNAc
In short: as §1

[19] = target: GalNAc(b1-3)Gal(a1-4)Gal(b1-4)GlcNAc(b1-3)Gal(b1-4)Glc
In short: as §1

[20] = target: GalNAc(b1-3)Gal(a1-6)Gal(b1-4)Glc
In short: as §1

GalNAc(b1-3)GalNAc = target: GalNAc(b1-3)GalNAc
In short: as §1

GalNAc(b1-3)GlcNAc = target: GalNAc(b1-3)GlcNAc
In short: as §1

GalNAc(b1-4)Gal(b1-4)Glc = target: GalNAc(b1-4)Gal(b1-4)Glc
In short: as §1

B1: SSR1 (Sclerotium rolfsii), A0A0M3KL30 (protein)
chain: TYKITVRVYQTNPDAFFHPVEKTVWKYANGGTWTITDDQHVLTMGGSGTSGTLRFHADNGESFTATFGVHNYKRWCDIVTNLAADETGMVINQQYYSQKNREEARERQLSNYQVKNAKGRNFQIVYTEAEGNDLHANLIIG
glycan array binding signal (z-score) [1]: -0.458
glycan array binding signal (z-score) [2]: 0.687
glycan array binding signal (z-score) [3]: -0.339
glycan array binding signal (z-score) [4]: 0.038
glycan array binding signal (z-score) [5]: -0.31
glycan array binding signal (z-score) [6]: -0.34
glycan array binding signal (z-score) [7]: 0.955
glycan array binding signal (z-score) [8]: -0.353
glycan array binding signal (z-score) [9]: -0.289
glycan array binding signal (z-score) [10]: 0.97
glycan array binding signal (z-score) [11]: -0.343
glycan array binding signal (z-score) (Gal(b1-4)GlcNAc6P): -0.363
glycan array binding signal (z-score) (Gal(b1-6)Gal): -0.338
glycan array binding signal (z-score) (Gal3S(b1-3)GalNAc): 1.54
glycan array binding signal (z-score) (Gal3S(b1-3)GlcNAc): -0.322
glycan array binding signal (z-score) [12]: -0.321
glycan array binding signal (z-score) (Gal3S(b1-4)Glc): -0.337
glycan array binding signal (z-score) (Gal3S(b1-4)Glc6S): -0.335
glycan array binding signal (z-score) (Gal3S(b1-4)GlcNAc): -0.327
glycan array binding signal (z-score) [13]: -0.296
glycan array binding signal (z-score) [14]: -0.326
glycan array binding signal (z-score) [15]: -0.335
glycan array binding signal (z-score) (Gal3S4S(b1-4)GlcNAc): -0.331
glycan array binding signal (z-score) (Gal3S6S(b1-4)GlcNAc): -0.319
glycan array binding signal (z-score) (Gal3S6S(b1-4)GlcNAc6S): -0.345
glycan array binding signal (z-score) (Gal4S(b1-4)GlcNAc): -0.339
glycan array binding signal (z-score) (Gal4S6S(b1-4)GlcNAc): -0.339
glycan array binding signal (z-score) (Gal6P(b1-4)GlcNAc): -0.333
glycan array binding signal (z-score) (Gal6S(b1-3)GlcNAc): -0.324
glycan array binding signal (z-score) (Gal6S(b1-3)GlcNAc6S): -0.339
glycan array binding signal (z-score) (Gal6S(b1-4)Glc): -0.323
glycan array binding signal (z-score) (Gal6S(b1-4)Glc6S): -0.336
glycan array binding signal (z-score) (Gal6S(b1-4)GlcNAc): -0.336
glycan array binding signal (z-score) (Gal6S(b1-4)GlcNAc6S): -0.338
glycan array binding signal (z-score) (GalNAc(a1-3)Gal): 0.124
glycan array binding signal (z-score) (GalNAc(a1-3)GalNAc): 0.382
glycan array binding signal (z-score) [16]: 0.005
glycan array binding signal (z-score) [17]: -0.307
glycan array binding signal (z-score) (GalNAc(b1-3)Gal): -0.337
glycan array binding signal (z-score) [18]: -0.335
glycan array binding signal (z-score) [19]: -0.354
glycan array binding signal (z-score) [20]: -0.342
glycan array binding signal (z-score) (GalNAc(b1-3)GalNAc): 0.998
glycan array binding signal (z-score) (GalNAc(b1-3)GlcNAc): -0.334
glycan array binding signal (z-score) (GalNAc(b1-4)Gal(b1-4)Glc): -0.337

— the supplement of paper PMC8728848
